The list shows a part of the results.
Assays:
Experiment in all cases: glycan array binding signal (z-score within array); higher = stronger binding
Details in all cases: glycan notation: IUPAC condensed, linker removed
[1] = biological target: Gal(b1-4)GlcNAc(b1-3)Gal(b1-4)GlcNAc(b1-3)Gal(b1-4)GlcNAc(b1-3)Gal(b1-4)GlcNAc(b1-2)Man(a1-3)[Gal(b1-4)GlcNAc(b1-3)Gal(b1-4)GlcNAc(b1-3)Gal(b1-4)GlcNAc(b1-3)Gal(b1-4)GlcNAc(b1-2)Man(a1-6)]Man(b1-4)GlcNAc(b1-4)[Fuc(a1-6)]GlcNAc
Method in brief: (§1)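 Columns mapping to the same glycan were averaged after glycan names were converted to IUPAC-condensed notation. The data come from 3228 arrays in the Consortium for Functional Glycomics database, limited to those with an available protein sequence. Binding is reported as a within-array Z-score averaged across arrays of one protein sequence and across linkers.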

[2] = biological target: Gal(b1-4)GlcNAc(b1-3)Gal(b1-4)GlcNAc(b1-3)Gal(b1-4)GlcNAc(b1-3)Gal(b1-4)GlcNAc(b1-2)[Gal(b1-4)GlcNAc(b1-3)Gal(b1-4)GlcNAc(b1-3)Gal(b1-4)GlcNAc(b1-3)Gal(b1-4)GlcNAc(b1-6)]Man(a1-6)[Gal(b1-4)GlcNAc(b1-3)Gal(b1-4)GlcNAc(b1-3)Gal(b1-4)GlcNAc(b1-3)Gal(b1-4)GlcNAc(b1-2)Man(a1-3)]Man(b1-4)GlcNAc(b1-4)[Fuc(a1-6)]GlcNAc
Method in brief: as §1

[3] = biological target: Gal(b1-4)GlcNAc(b1-3)Gal(b1-4)GlcNAc(b1-3)Gal(b1-4)GlcNAc(b1-3)Gal(b1-4)GlcNAc(b1-3)Gal(b1-4)GlcNAc(b1-2)Man(a1-3)[Gal(b1-4)GlcNAc(b1-3)Gal(b1-4)GlcNAc(b1-3)Gal(b1-4)GlcNAc(b1-3)Gal(b1-4)GlcNAc(b1-3)Gal(b1-4)GlcNAc(b1-2)Man(a1-6)]Man(b1-4)GlcNAc(b1-4)GlcNAc
Method in brief: as §1

[4] = biological target: Gal(b1-4)GlcNAc(b1-3)Gal(b1-4)GlcNAc(b1-3)Gal(b1-4)GlcNAc(b1-3)Gal(b1-4)GlcNAc(b1-3)Gal(b1-4)GlcNAc(b1-2)Man(a1-3)[Gal(b1-4)GlcNAc(b1-3)Gal(b1-4)GlcNAc(b1-3)Gal(b1-4)GlcNAc(b1-3)Gal(b1-4)GlcNAc(b1-3)Gal(b1-4)GlcNAc(b1-2)Man(a1-6)]Man(b1-4)GlcNAc(b1-4)[Fuc(a1-6)]GlcNAc
Method in brief: as §1

[5] = biological target: Gal(b1-4)GlcNAc(b1-3)Gal(b1-4)GlcNAc(b1-3)Gal(b1-4)GlcNAc(b1-3)Gal(b1-4)GlcNAc(b1-3)Gal(b1-4)GlcNAc(b1-2)[Gal(b1-4)GlcNAc(b1-3)Gal(b1-4)GlcNAc(b1-3)Gal(b1-4)GlcNAc(b1-3)Gal(b1-4)GlcNAc(b1-3)Gal(b1-4)GlcNAc(b1-6)]Man(a1-6)[Gal(b1-4)GlcNAc(b1-3)Gal(b1-4)GlcNAc(b1-3)Gal(b1-4)GlcNAc(b1-3)Gal(b1-4)GlcNAc(b1-3)Gal(b1-4)GlcNAc(b1-2)Man(a1-3)]Man(b1-4)GlcNAc(b1-4)[Fuc(a1-6)]GlcNAc
Method in brief: as §1

[6] = biological target: Gal(b1-4)GlcNAc(b1-3)Gal(b1-4)GlcNAc(b1-3)Gal(b1-4)GlcNAc(b1-3)Gal(b1-4)GlcNAc(b1-3)Gal(b1-4)GlcNAc(b1-3)Gal(b1-4)GlcNAc(b1-2)Man(a1-3)[Gal(b1-4)GlcNAc(b1-3)Gal(b1-4)GlcNAc(b1-3)Gal(b1-4)GlcNAc(b1-3)Gal(b1-4)GlcNAc(b1-3)Gal(b1-4)GlcNAc(b1-3)Gal(b1-4)GlcNAc(b1-2)Man(a1-6)]Man(b1-4)GlcNAc(b1-4)GlcNAc
Method in brief: as §1

[7] = biological target: Gal(b1-4)GlcNAc(b1-3)Gal(b1-4)GlcNAc(b1-3)GalNAc
Method in brief: as §1

[8] = biological target: Gal(b1-4)GlcNAc(b1-3)Gal(b1-4)GlcNAc(b1-3)[Gal(b1-4)GlcNAc(b1-3)Gal(b1-4)GlcNAc(b1-6)]GalNAc
Method in brief: as §1

[9] = biological target: Gal(b1-4)GlcNAc(b1-3)Gal(b1-4)GlcNAc(b1-6)[Gal(b1-3)]GalNAc
Method in brief: as §1

[10] = biological target: Gal(b1-4)GlcNAc(b1-3)Gal(b1-4)[Fuc(a1-3)]GlcNAc(b1-3)Gal(b1-4)[Fuc(a1-3)]GlcNAc
Method in brief: as §1

[11] = biological target: Gal(b1-4)GlcNAc(b1-3)GalNAc
Method in brief: as §1

[12] = biological target: Gal(b1-4)GlcNAc(b1-3)[Fuc(a1-3)GlcNAc(b1-6)]Gal(b1-4)Glc
Method in brief: as §1

[13] = biological target: Gal(b1-4)GlcNAc(b1-3)[Gal(b1-4)GlcNAc(b1-6)]Gal(b1-4)GlcNAc
Method in brief: as §1

[14] = biological target: Gal(b1-4)GlcNAc(b1-3)[GlcNAc(b1-6)]Gal(b1-4)GlcNAc
Method in brief: as §1

[15] = biological target: Gal(b1-4)GlcNAc(b1-6)Gal(b1-4)GlcNAc
Method in brief: as §1

[16] = biological target: Gal(b1-4)GlcNAc(b1-6)GalNAc
Method in brief: as §1

[17] = biological target: Gal(b1-4)GlcNAc(b1-6)[Gal(b1-3)]GalNAc
Method in brief: as §1

[18] = biological target: Gal(b1-4)GlcNAc(b1-6)[Gal(b1-4)GlcNAc(b1-3)]GalNAc
Method in brief: as §1

Gal(b1-4)GlcNAc6P = biological target: Gal(b1-4)GlcNAc6P
Method in brief: as §1

Gal(b1-6)Gal = biological target: Gal(b1-6)Gal
Method in brief: as §1

Gal3S(b1-3)GalNAc = biological target: Gal3S(b1-3)GalNAc
Method in brief: as §1

Gal3S(b1-3)GlcNAc = biological target: Gal3S(b1-3)GlcNAc
Method in brief: as §1

[19] = biological target: Gal3S(b1-3)[Fuc(a1-4)]GlcNAc
Method in brief: as §1

Gal3S(b1-4)Glc = biological target: Gal3S(b1-4)Glc
Method in brief: as §1

Gal3S(b1-4)Glc6S = biological target: Gal3S(b1-4)Glc6S
Method in brief: as §1

Gal3S(b1-4)GlcNAc = biological target: Gal3S(b1-4)GlcNAc
Method in brief: as §1

[20] = biological target: Gal3S(b1-4)[Fuc(a1-3)]Glc6S
Method in brief: as §1

[21] = biological target: Gal3S(b1-4)[Fuc(a1-3)]GlcNAc
Method in brief: as §1

[22] = biological target: Gal3S(b1-4)[Fuc(a1-3)]GlcNAc6S
Method in brief: as §1

Gal3S4S(b1-4)GlcNAc = biological target: Gal3S4S(b1-4)GlcNAc
Method in brief: as §1

Gal3S6S(b1-4)GlcNAc = biological target: Gal3S6S(b1-4)GlcNAc
Method in brief: as §1

Gal3S6S(b1-4)GlcNAc6S = biological target: Gal3S6S(b1-4)GlcNAc6S
Method in brief: as §1

Gal4S(b1-4)GlcNAc = biological target: Gal4S(b1-4)GlcNAc
Method in brief: as §1

Gal4S6S(b1-4)GlcNAc = biological target: Gal4S6S(b1-4)GlcNAc
Method in brief: as §1

Gal6P(b1-4)GlcNAc = biological target: Gal6P(b1-4)GlcNAc
Method in brief: as §1

Gal6S(b1-3)GlcNAc = biological target: Gal6S(b1-3)GlcNAc
Method in brief: as §1

Gal6S(b1-3)GlcNAc6S = biological target: Gal6S(b1-3)GlcNAc6S
Method in brief: as §1

Gal6S(b1-4)Glc = biological target: Gal6S(b1-4)Glc
Method in brief: as §1

B1: PX14375l-pdi-526-25-526 (Parabacteroides distasonis) (protein)
chain: DEEPKSTLTDVAYYKTQSQMESNVNYLYRTGAIGSYVDFGSAYIGPFASIQEELTGYFSNSYEGQEIVCRYTRELTRQQNTMQLASKMDKVWDDCYRGINVANGAIKHMPEVPMDQATADRLTAEAKFFRAFNYFYLVKTFGAVPFYTDPYELAENMELPRTETSTIYNQIESDLKDAMNVLPEATFAANGHRITKYVAAMTLTDVYMYQHKYAEAAETVRIVVNSNHKLTTNDDLAMNSAFNKLRSTDDLDEAIYAYEYDNQISPSNWLPTYAFDGDASSNGLFGTYAITQKVHGPNDRYLNIYESNDLRRQPNQFYHWTYTNPKTGKVWNSVGNAACCWYYYDEDALLTTGRGTKDWNVYRYAEALLDAAESIAQSTGVTAEAAGYLAQVKARANMEGKTAAEIASSLQSMGKQAFIEECWTERLRELPLEFKMWDMCVRTGMFPNISETTPGQVTYIPLVGAKNASGATIKESDLLWPLSVNEIQRNPSLTQNEGYSAK
- glycan array binding signal (z-score) [1]: -0.06
- glycan array binding signal (z-score) [2]: 1.05
- glycan array binding signal (z-score) [3]: -0.127
- glycan array binding signal (z-score) [4]: 0.149
- glycan array binding signal (z-score) [5]: 0.485
- glycan array binding signal (z-score) [6]: 0.024
- glycan array binding signal (z-score) [7]: 0.445
- glycan array binding signal (z-score) [8]: 0.427
- glycan array binding signal (z-score) [9]: -0.398
- glycan array binding signal (z-score) [10]: -0.334
- glycan array binding signal (z-score) [11]: -0.261
- glycan array binding signal (z-score) [12]: -0.241
- glycan array binding signal (z-score) [13]: 0.132
- glycan array binding signal (z-score) [14]: -0.154
- glycan array binding signal (z-score) [15]: -0.2
- glycan array binding signal (z-score) [16]: -0.181
- glycan array binding signal (z-score) [17]: -0.282
- glycan array binding signal (z-score) [18]: -0.16
- glycan array binding signal (z-score) (Gal(b1-4)GlcNAc6P): -0.245
- glycan array binding signal (z-score) (Gal(b1-6)Gal): -0.432
- glycan array binding signal (z-score) (Gal3S(b1-3)GalNAc): -0.06
- glycan array binding signal (z-score) (Gal3S(b1-3)GlcNAc): -0.041
- glycan array binding signal (z-score) [19]: -0.094
- glycan array binding signal (z-score) (Gal3S(b1-4)Glc): 0.572
- glycan array binding signal (z-score) (Gal3S(b1-4)Glc6S): -0.056
- glycan array binding signal (z-score) (Gal3S(b1-4)GlcNAc): -0.224
- glycan array binding signal (z-score) [20]: -0.014
- glycan array binding signal (z-score) [21]: -0.043
- glycan array binding signal (z-score) [22]: -0.125
- glycan array binding signal (z-score) (Gal3S4S(b1-4)GlcNAc): -0.164
- glycan array binding signal (z-score) (Gal3S6S(b1-4)GlcNAc): 0.009
- glycan array binding signal (z-score) (Gal3S6S(b1-4)GlcNAc6S): -0.107
- glycan array binding signal (z-score) (Gal4S(b1-4)GlcNAc): 0
- glycan array binding signal (z-score) (Gal4S6S(b1-4)GlcNAc): -0.144
- glycan array binding signal (z-score) (Gal6P(b1-4)GlcNAc): 0.101
- glycan array binding signal (z-score) (Gal6S(b1-3)GlcNAc): -0.207
- glycan array binding signal (z-score) (Gal6S(b1-3)GlcNAc6S): 9.53
- glycan array binding signal (z-score) (Gal6S(b1-4)Glc): -0.134

— the supplement of paper PMC8728848
